Source: article PMC10735225
These are yes or no findings as the source states them, for the method shown. Binding seen in cells or lysates may run through a third protein. Some results given as binding are weak or reduced against the parent protein; the word gives no strength. Tags and fused reporters may be left off the sequences shown.

Tests used:
Assay in all cases: co-IP; lysates of transfected HEK293T cells (Pierce IP Lysis Buffer); 2 ug anti-Myc or anti-FLAG antibody, Protein A/G agarose; western blot
Myc-tagged DNAI2 (mouse) = target: T1, Myc-tagged DNAI2 (mouse) (UniProt A2AC93)
T1 sequence: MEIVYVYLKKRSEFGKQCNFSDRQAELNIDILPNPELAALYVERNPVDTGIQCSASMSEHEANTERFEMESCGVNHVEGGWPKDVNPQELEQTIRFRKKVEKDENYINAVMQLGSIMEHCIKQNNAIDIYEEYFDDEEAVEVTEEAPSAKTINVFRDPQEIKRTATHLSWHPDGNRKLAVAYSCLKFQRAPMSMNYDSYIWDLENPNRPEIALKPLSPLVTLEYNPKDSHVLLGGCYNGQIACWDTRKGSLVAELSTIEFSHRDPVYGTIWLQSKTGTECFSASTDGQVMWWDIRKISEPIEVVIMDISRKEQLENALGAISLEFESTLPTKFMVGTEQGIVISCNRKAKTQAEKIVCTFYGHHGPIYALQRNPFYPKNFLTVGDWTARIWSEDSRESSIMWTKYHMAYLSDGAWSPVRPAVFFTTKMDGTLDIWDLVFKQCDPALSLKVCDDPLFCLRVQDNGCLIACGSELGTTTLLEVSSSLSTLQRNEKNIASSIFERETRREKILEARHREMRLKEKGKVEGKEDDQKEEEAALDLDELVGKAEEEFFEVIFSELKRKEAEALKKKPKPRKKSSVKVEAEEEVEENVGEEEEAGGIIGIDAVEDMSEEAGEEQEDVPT

Myc-tagged DRC4 (mouse) = target: T2, Myc-tagged DRC4 (mouse) (UniProt Q60779)
T2 sequence: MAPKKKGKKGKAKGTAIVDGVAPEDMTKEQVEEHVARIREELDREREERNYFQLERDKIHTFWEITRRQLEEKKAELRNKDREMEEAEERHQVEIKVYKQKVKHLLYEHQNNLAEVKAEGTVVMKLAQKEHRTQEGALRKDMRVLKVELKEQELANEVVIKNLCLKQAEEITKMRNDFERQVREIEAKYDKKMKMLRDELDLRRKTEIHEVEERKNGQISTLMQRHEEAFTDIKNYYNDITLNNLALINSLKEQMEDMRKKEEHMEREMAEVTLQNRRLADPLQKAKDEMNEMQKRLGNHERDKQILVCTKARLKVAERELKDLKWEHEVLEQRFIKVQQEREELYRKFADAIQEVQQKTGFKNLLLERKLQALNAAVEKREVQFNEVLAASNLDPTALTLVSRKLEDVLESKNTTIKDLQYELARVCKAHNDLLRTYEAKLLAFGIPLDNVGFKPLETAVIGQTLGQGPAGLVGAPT

Myc-tagged ODAD1 (mouse) = target: T3, Myc-tagged ODAD1 (mouse) (UniProt Q3UX62)
T3 sequence: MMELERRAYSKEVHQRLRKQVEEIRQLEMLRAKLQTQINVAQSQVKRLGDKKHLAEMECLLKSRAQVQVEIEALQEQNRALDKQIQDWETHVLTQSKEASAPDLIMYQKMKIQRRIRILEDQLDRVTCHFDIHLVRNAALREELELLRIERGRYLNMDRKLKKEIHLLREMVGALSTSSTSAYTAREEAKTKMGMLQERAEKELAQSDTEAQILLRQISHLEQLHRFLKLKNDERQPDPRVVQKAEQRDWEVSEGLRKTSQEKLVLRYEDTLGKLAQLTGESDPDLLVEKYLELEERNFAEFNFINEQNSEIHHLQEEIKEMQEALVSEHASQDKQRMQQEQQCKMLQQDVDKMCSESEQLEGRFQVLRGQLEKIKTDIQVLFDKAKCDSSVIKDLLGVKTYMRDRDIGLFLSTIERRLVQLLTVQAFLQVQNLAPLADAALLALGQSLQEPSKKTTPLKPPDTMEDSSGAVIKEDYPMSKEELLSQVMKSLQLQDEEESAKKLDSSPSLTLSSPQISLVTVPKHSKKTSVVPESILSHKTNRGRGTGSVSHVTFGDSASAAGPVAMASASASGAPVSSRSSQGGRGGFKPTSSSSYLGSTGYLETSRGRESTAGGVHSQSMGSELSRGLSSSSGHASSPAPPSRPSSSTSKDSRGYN

Myc-tagged RSPH1 (mouse) = target: T4, Myc-tagged RSPH1 (mouse) (UniProt Q8VIG3)
T4 sequence: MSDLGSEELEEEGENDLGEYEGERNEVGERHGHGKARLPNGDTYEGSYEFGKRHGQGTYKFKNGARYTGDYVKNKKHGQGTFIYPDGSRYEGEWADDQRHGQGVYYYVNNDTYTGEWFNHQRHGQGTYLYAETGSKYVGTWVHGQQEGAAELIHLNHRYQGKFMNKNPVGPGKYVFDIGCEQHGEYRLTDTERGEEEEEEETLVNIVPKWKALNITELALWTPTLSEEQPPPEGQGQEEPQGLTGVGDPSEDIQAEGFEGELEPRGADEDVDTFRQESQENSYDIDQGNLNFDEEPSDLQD

[1] = target: T5, Myc-tagged SPATA6 (mouse) (UniProt Q3U6K5)
T5 sequence: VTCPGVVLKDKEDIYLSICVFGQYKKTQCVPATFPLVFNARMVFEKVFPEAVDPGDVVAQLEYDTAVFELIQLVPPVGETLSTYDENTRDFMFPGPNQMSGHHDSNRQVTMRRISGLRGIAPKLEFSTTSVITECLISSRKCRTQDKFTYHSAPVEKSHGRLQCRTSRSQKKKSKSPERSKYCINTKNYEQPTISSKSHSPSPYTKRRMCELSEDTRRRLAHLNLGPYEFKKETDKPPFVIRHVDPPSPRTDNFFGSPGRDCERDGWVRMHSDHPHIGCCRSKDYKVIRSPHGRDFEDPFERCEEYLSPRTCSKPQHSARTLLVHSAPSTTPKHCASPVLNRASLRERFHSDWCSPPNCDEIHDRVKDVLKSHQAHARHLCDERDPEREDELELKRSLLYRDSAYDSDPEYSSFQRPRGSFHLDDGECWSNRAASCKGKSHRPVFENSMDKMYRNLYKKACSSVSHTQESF

binding (Myc-tagged DNAI2 (mouse)): binds
binding (Myc-tagged DRC4 (mouse)): no binding
binding (Myc-tagged ODAD1 (mouse)): binds
binding (Myc-tagged RSPH1 (mouse)): binds
binding [1]: binds
B1: FLAG-tagged CFAP52 (cilia and flagella associated protein 52) (protein, UniProt Q5F201-1 1-620)
chain: MEEQVLPELDVAELELQAVIGFNGHVPNGLKCHPDQEHLIYPLGCTVLIQAINTNEQNFLHGHGNNVSCVTISKEGDYIASGQVTFMGFKADIILWDFKKRELIARLSLHKGKIEALAFSPNDLYLVSLGGPDDGSVVVWSIAKRDAICGSPAAGLNVGNATSVVFSRCRDEMFVTAGNGTIRVWELDLPNRKIWPTECQTGQMKRIVLSTGMADDDSFFYLGTTTGDILKMNPKTKLLADTGPVKDKFSLGVSALRCLKMGGLLVGSGAGLLIFCKSPSYKPIKKVQLQGGITSITLRGEGHQFFVGTEESHIYRVNFTDFKETLIATCHFEAVQDIVFPFGTAELFATCAKKDIRVWHTMSKRELLRITVPNMTCHGIDFMRDGKSIISAWDDGKIRAFAPESGRLMYTINSAHRIGVTAIATTSDCKRIISGGGEGEVRVWQVGCQTQKLEEALKEHKSSVSCIRVKKNNEECVTASTDGTCIIWDLVRLRRNQMILANTLFQCVCYHPEEFQIITSGTDRKIAYWEVFDGSVIRELEGSLSGSINGMDITQEGGHFVTGGHDHLVKVWDYNEGEVTHVGVGHSGNIMAMRISPGNQYIVSVSADGAILRWKYPFAS
